# Results are given in words; binding and its absence hold for the method and conditions named. In cells and extracts the contact can be indirect. Some entries that bind do so weakly or less than the wild type. Tags and fused reporters may be left off the sequences shown.
# Protein sequences, listed by entry. Tags and fused reporters are not part of them.
# UniProt Q6W2J9: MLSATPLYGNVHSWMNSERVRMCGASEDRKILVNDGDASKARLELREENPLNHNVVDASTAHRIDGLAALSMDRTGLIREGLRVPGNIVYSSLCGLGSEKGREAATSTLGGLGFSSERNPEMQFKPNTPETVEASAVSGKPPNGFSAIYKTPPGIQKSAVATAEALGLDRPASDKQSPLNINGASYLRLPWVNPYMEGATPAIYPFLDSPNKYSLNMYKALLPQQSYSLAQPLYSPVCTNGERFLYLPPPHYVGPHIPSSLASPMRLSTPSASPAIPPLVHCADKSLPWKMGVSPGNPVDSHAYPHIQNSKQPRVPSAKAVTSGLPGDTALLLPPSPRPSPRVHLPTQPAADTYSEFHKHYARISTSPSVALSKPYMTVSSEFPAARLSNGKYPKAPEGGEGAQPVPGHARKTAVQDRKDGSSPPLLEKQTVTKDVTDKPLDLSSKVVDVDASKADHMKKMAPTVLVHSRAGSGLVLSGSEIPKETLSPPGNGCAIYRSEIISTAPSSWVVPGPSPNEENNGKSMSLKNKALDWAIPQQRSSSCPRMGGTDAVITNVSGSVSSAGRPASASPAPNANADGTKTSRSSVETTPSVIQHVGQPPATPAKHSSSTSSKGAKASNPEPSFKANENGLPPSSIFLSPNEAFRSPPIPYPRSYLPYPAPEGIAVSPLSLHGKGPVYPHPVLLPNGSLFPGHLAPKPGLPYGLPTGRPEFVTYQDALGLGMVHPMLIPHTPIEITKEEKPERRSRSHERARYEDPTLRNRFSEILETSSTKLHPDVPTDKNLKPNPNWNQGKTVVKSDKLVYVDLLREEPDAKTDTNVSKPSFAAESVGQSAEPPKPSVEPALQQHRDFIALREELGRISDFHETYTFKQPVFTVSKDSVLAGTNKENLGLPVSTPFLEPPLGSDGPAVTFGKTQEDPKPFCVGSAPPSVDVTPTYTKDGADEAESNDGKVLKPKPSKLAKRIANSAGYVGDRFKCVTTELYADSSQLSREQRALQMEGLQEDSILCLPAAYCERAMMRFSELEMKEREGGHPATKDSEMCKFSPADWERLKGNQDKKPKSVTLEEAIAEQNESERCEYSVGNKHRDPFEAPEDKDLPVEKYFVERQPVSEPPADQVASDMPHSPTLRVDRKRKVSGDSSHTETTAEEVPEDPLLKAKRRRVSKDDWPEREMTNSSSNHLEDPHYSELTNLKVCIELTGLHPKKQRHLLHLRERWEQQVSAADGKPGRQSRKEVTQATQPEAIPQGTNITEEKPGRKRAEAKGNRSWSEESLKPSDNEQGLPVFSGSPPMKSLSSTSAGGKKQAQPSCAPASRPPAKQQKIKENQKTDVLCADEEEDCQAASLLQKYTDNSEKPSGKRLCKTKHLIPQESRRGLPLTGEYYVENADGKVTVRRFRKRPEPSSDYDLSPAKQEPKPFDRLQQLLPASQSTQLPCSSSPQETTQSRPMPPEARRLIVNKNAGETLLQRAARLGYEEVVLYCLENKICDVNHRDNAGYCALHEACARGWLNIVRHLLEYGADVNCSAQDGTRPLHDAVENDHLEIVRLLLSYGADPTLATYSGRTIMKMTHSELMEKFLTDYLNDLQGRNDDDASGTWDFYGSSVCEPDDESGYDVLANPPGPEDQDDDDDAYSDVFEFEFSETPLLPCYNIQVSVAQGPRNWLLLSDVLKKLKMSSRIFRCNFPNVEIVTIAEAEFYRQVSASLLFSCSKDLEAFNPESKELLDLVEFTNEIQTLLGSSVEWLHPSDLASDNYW
# UniProt Q8WXI9: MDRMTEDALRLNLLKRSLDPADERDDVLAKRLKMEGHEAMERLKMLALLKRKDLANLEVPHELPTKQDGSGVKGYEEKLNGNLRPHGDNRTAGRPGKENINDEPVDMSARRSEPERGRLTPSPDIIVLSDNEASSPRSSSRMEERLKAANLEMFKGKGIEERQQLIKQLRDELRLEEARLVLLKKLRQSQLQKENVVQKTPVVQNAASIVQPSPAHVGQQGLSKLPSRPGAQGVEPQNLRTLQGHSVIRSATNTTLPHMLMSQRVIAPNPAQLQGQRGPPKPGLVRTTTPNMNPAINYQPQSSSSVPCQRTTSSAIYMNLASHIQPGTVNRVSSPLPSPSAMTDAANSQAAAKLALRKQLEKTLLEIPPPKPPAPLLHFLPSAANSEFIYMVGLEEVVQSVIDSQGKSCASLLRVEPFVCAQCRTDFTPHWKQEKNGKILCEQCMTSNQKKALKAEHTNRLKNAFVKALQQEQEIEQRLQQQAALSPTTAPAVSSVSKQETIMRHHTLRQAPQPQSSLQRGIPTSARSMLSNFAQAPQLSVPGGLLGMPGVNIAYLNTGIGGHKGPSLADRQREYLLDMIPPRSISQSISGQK
# B1: Rluc-ADNP (protein, UniProt Q9H2P0 1-1102)
# chain: MFQLPVNNLGSLRKARKTVKKILSDIGLEYCKEHIEDFKQFEPNDFYLKNTTWEDVGLWDPSLTKNQDYRTKPFCCSACPFSSKFFSAYKSHFRNVHSEDFENRILLNCPYCTFNADKKTLETHIKIFHAPNASAPSSSLSTFKDKNKNDGLKPKQADSVEQAVYYCKKCTYRDPLYEIVRKHIYREHFQHVAAPYIAKAGEKSLNGAVPLGSNAREESSIHCKRCLFMPKSYEALVQHVIEDHERIGYQVTAMIGHTNVVVPRSKPLMLIAPKPQDKKSMGLPPRIGSLASGNVRSLPSQQMVNRLSIPKPNLNSTGVNMMSSVHLQQNNYGVKSVGQGYSVGQSMRLGLGGNAPVSIPQQSQSVKQLLPSGNGRSYGLGSEQRSQAPARYSLQSANASSLSSGQLKSPSLSQSQASRVLGQSSSKPAAAATGPPPGNTSSTQKWKICTICNELFPENVYSVHFEKEHKAEKVPAVANYIMKIHNFTSKCLYCNRYLPTDTLLNHMLIHGLSCPYCRSTFNDVEKMAAHMRMVHIDEEMGPKTDSTLSFDLTLQQGSHTNIHLLVTTYNLRDAPAESVAYHAQNNPPVPPKPQPKVQEKADIPVKSSPQAAVPYKKDVGKTLCPLCFSILKGPISDALAHHLRERHQVIQTVHPVEKKLTYKCIHCLGVYTSNMTASTITLHLVHCRGVGKTQNGQDKTNAPSRLNQSPSLAPVKRTYEQMEFPLLKKRKLDDDSDSPSFFEEKPEEPVVLALDPKGHEDDSYEARKSFLTKYFNKQPYPTRREIEKLAASLWLWKSDIASHFSNKRKKCVRDCEKYKPGVLLGFNMKELNKVKHEMDFDAEWLFENHDEKDSRVNASKTADKKLNLGKEDDSSSDSFENLEEESNESGSPFDPVFEVEPKISNDNPEEHVLKVIPEDASESEEKLDQKEDGSKYETIHLTEEPTKLMHNASDSEVDQDDVVEWKDGASPSESGPGSQQVSDFEDNTCEMKPGTWSDESSQSEDARSSKPAAKKKATMQGDREQLKWKNSSYGKVEGFWSKDQSQWKNASENDERLSNPQIEWQNSTIDSEDGEQFDNMTDGVAEPMHGSLAGVKLSSQQA
# B2: Rluc-NR2F1 (protein, UniProt P10589 1-423)
# chain: MAMVVSSWRDPQDDVAGGNPGGPNPAAQAARGGGGGAGEQQQQAGSGAPHTPQTPGQPGAPATPGTAGDKGQGPPGSGQSQQHIECVVCGDKSSGKHYGQFTCEGCKSFFKRSVRRNLTYTCRANRNCPIDQHHRNQCQYCRLKKCLKVGMRREAVQRGRMPPTQPNPGQYALTNGDPLNGHCYLSGYISLLLRAEPYPTSRYGSQCMQPNNIMGIENICELAARLLFSAVEWARNIPFFPDLQITDQVSLLRLTWSELFVLNAAQCSMPLHVAPLLAAAGLHASPMSADRVVAFMDHIRIFQEQVEKLKALHVDSAEYSCLKAIVLFTSDACGLSDAAHIESLQEKSQCALEEYVRSQYPNQPSRFGKLLLRLPSLRTVSSSVIEQLFFVRLVGKTPIETLIRDMLLSGSSFNWPYMSIQCS
# B3: Rluc-NR2F2 (protein, UniProt P24468 1-414)
# chain: MAMVVSTWRDPQDEVPGSQGSQASQAPPVPGPPPGAPHTPQTPGQGGPASTPAQTAAGGQGGPGGPGSDKQQQQQHIECVVCGDKSSGKHYGQFTCEGCKSFFKRSVRRNLSYTCRANRNCPIDQHHRNQCQYCRLKKCLKVGMRREAVQRGRMPPTQPTHGQFALTNGDPLNCHSYLSGYISLLLRAEPYPTSRFGSQCMQPNNIMGIENICELAARMLFSAVEWARNIPFFPDLQITDQVALLRLTWSELFVLNAAQCSMPLHVAPLLAAAGLHASPMSADRVVAFMDHIRIFQEQVEKLKALHVDSAEYSCLKAIVLFTSDACGLSDVAHVESLQEKSQCALEEYVRSQYPNQPTRFGKLLLRLPSLRTVSSSVIEQLFFVRLVGKTPIETLIRDMLLSGSSFNWPYMAIQ
# Molecular target: T1, YFP-TBR1 p.P542R (human) (UniProt Q16650)
# T1 sequence: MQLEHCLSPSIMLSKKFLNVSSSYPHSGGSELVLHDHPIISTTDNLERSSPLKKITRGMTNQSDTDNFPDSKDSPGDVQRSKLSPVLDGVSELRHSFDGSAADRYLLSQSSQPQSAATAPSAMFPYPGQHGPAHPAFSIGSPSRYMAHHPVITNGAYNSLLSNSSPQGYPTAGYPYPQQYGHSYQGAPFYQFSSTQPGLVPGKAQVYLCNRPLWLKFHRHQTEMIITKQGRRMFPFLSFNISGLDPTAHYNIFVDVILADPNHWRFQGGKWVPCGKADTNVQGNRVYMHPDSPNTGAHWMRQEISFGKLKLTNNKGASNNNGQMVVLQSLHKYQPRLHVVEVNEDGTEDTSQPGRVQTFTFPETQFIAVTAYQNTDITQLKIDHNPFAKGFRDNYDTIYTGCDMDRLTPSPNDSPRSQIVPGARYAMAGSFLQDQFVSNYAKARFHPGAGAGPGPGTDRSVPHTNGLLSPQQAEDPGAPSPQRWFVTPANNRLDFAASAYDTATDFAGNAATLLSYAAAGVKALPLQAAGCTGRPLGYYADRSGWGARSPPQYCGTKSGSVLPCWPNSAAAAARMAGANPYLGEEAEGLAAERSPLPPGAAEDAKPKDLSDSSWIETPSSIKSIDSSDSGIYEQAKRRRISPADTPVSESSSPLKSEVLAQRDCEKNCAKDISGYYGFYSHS
# Test: FRET or BRET; BRET in live HEK293 cells transfected with pairs of N-terminal Rluc and YFP fusions, 96-well plates; EnduRen substrate 48 h after transfection; Rluc-NLS and YFP-NLS as controls
molecule,measurement,value
Rluc-BCOR (from UniProt Q6W2J9 1-1755),binding,binds
Rluc-GATAD2B (from UniProt Q8WXI9 1-593),binding,binds
B1,binding,binds
B2,binding,binds
B3,binding,binds

# — PMC10117376
